In PubChem BioAssay AID360 (National Center for Advancing Translational Sciences (NCATS), 2006):
In all, about 48,000 compounds went through this assay and about 550 (1.1%) were called active. Another 4% or so got no clear call; they are omitted. No stated cut-off is given here; in the data, active means potency below about 15 µM; inconclusive means mostly about 16 µM to 33 µM; inactive means weaker than that. This is one part of the list.

biological target: Lysosomal acid glucosylceramidase (Homo sapiens) (UniProt P04062); experiment: Glucocerebrosidase; conditions: purified enzyme, resorufin glucoside fluorescence (screen aimed at inhibitors), 20 min;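 further: the screen sought inhibitors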
Sequence of UniProt P04062 (P04062 whole entry, looked up): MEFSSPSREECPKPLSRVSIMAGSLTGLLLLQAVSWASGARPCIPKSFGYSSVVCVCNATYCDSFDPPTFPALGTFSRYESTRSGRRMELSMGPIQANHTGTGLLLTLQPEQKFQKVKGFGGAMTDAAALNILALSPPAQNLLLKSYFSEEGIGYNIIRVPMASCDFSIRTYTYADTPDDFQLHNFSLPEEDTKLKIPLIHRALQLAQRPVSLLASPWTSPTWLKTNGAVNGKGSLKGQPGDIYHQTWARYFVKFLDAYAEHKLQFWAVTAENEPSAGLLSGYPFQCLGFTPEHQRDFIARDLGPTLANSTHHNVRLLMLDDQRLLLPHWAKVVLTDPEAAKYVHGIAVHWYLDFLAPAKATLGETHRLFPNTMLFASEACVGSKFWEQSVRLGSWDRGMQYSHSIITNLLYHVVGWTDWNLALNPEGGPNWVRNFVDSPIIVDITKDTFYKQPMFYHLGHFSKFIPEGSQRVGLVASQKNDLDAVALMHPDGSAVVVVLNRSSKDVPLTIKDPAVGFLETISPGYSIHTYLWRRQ
Outline: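 Normal human glucocerebrosidase (0.2 nM final) was assayed with resorufin β-D-glucopyranoside (30 uM final) in 50mM citric acid/KH2PO4, 10mM sodium taurocholate, 0.01% tween-20, pH 5.9. Compounds were titrated; fluorescence (Ex 548, Em 600) read after 20 min at RT.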
Potency means the concentration at half of the fitted maximal effect.

Compound | Potency
CCn1c(-c2ccsc2)nc2c1c(=O)[nH]c(=O)n2Cc1ccccc1 | inactive: > 76.9 µM
COc1ccc(CNC(=O)CCn2c(=O)oc3ccccc32)cc1 | inactive: > 76.9 µM
CCN(CC)CCNC(=O)C1c2cc(OC)c(OC)cc2C(=O)N2CCc3ccccc3C12 (stereo not drawn) | inactive: > 76.9 µM
Cc1nc2nc(-c3cccnc3)[nH]n2c(=O)c1Cc1ccccc1 | inactive: > 76.9 µM
O=C(Nc1ccccc1)c1cccc(N2C(=O)CCC2=O)c1 | inactive: > 76.9 µM
CC1CCCC(NC(=O)CSc2ncccc2C(=O)O)C1C (stereo not drawn) | inactive: > 76.9 µM
COc1cccc(NC2=NC3(CCCCC3)N=C(N)N2)c1 | inactive: > 76.9 µM
O=C(c1ccco1)N1CCN(CC(O)COc2ccc3oc4ccccc4c3c2)CC1 (stereo not drawn) | inactive: > 76.9 µM
COc1ccc(-n2nnnc2SCC(=O)Nc2ccc3c(c2)OCCO3)c(OC)c1 | inactive: > 76.9 µM
CC1Cc2ccccc2N1C(=O)CSc1nc2ccccc2n1CC(=O)N1CCOCC1 (stereo not drawn) | inactive: > 76.9 µM
O=C(Nc1cccc(C(=O)N2CCCCCC2)c1)c1ccco1 | inactive: > 76.9 µM
CCOC(=O)c1cn(CC)c2cc(N3CCSCC3)c(F)cc2c1=O | inactive: > 76.9 µM
CCS(=O)(=O)Nc1ccc(-c2nnc(SCC(=O)OC)o2)cc1 | inactive: > 76.9 µM
O=C(OCC(=O)N1CCN(C(=O)c2ccco2)CC1)c1cc(-c2ccc(F)cc2)nc2ccccc12 | inactive: > 76.9 µM
CC1CC(=O)c2cnc(NCc3ccco3)nc2C1 (stereo not drawn) | inactive: > 76.9 µM
COc1ccccc1C(=O)Nc1ccccn1 | inactive: > 76.9 µM
COC(=O)c1cccc(Oc2nc(N3CCOCC3)nc(N3CCOCC3)n2)c1 | inactive: > 76.9 µM
O=c1cc(-c2ccccc2)nc(N2CCN(Cc3ccc4c(c3)OCO4)CC2)[nH]1 | inactive: > 76.9 µM
Cc1ccc2cc3c(NC(=O)c4cccnc4)nn(C)c3nc2c1 | inactive: > 76.9 µM
COc1ccccc1N(C)S(=O)(=O)c1ccc(C(=O)NC2=NCCS2)cc1 | inactive: > 76.9 µM
Cc1ccc(NC(=O)C2CC(=O)NC(N3CCc4ccccc43)=N2)cc1 (stereo not drawn) | inactive: > 76.9 µM
COc1ccc(OC)c(C2N(c3ccccn3)C(=O)C3CCCN32)c1 (stereo not drawn) | inactive: > 76.9 µM

Compound | Potency
CC1CC=C2C(C#N)=C(N)C(C#N)(C#N)C(c3cccs3)C2C1 (stereo not drawn) | active: 10.7 µM
CC(C)CCn1nc(C(=O)OC(C)C(=O)NC(N)=O)c2ccccc2c1=O (stereo not drawn) | inactive: > 76.9 µM
CCOC(=O)CNc1c(-c2ccc(Cl)cc2)nc2cnccn12 | inactive
CC(=O)c1cccc(N(C(=O)c2ccco2)C(C(=O)NC2CCCC2)c2ccncc2)c1 (stereo not drawn) | inactive: > 76.9 µM
CC12CCC(=O)N1C(C(=O)O)Cc1c2[nH]c2ccccc12 (stereo not drawn) | inactive: > 76.9 µM
O=C(COc1ccccc1Cl)NC(=O)NC1CCCC1 | inactive: > 76.9 µM
O=C(c1csc2ccccc12)n1cccn1 | inactive: > 76.9 µM
COc1cccc(NC(=O)CSc2nc3c(c(-c4ccco4)c2C#N)CCCC3)c1 | inactive: > 76.9 µM
Cc1cc(Nc2ccccc2)n(-c2ccccc2)n1 | inactive: > 76.9 µM
CCOC(=O)N1CCN(C(=O)COc2cc(=O)n(C)c3ccccc23)CC1 | inactive: > 76.9 µM
COc1ccc(-n2c(SCC(=O)N3CCCCC3)nnc2-c2cccnc2)cc1 | inactive: > 76.9 µM
Cc1c(CCC(=O)O)c(=O)oc2cc3occ(-c4ccc(F)cc4)c3cc12 | inactive: > 76.9 µM
O=C(c1noc2c1CCc1ccccc1-2)N1CCc2ccccc2C1 | inactive: > 76.9 µM
Cc1ccc2c(n1)sc1c(N)ncnc12 | inactive: > 76.9 µM
CCOc1ccc(NC(=O)CN2CCN(CC(=O)Nc3ccc(F)c(F)c3)CC2)cc1 | inactive: > 76.9 µM
CCOc1cc(CNc2ccc3[nH]c(=O)[nH]c3c2)ccc1OCC(=O)NC(C)(C)C | inactive: > 76.9 µM
COc1ccc(F)cc1S(=O)(=O)NC1CCCCCC1 | inactive: > 76.9 µM
CCOC(=O)N1CCC(NC(=O)c2cnn3c2NC(c2ccco2)CC3C(F)(F)F)CC1 (stereo not drawn) | inactive: > 76.9 µM
CCOC(=O)c1c(NC(=O)CSc2nc3c(c(=O)n(C)c(=O)n3C)n2CC)sc(C)c1C | inactive: > 76.9 µM
COc1ccc(Oc2c(C)oc3c(CN(C)C)c(O)ccc3c2=O)cc1 | inactive: > 76.9 µM
COc1ccc(CCNC(=O)C2CCN(S(=O)(=O)N3CCCCCC3)CC2)cc1OC | inactive: > 76.9 µM
CNS(=O)(=O)c1cccc(C(=O)OCC(=O)Nc2ccccc2OC(F)F)c1 | inactive: > 76.9 µM

Compound | Potency
CCCS(=O)(=O)N1CCC(C(=O)NCCCN(CC)c2cccc(C)c2)CC1 | inactive: > 76.9 µM
CNS(=O)(=O)c1cc(OC)ccc1OC | inactive: > 76.9 µM
COC(=O)C1C(=O)C2=C(CC1C)NC(C)=C(C(=O)OC(C)C)C2c1ccc(OC)c(O)c1 (stereo not drawn) | inactive: > 76.9 µM
O=C(c1cccc(C(F)(F)F)c1)N1CCN(C2CCCCC2)CC1 | inactive: > 76.9 µM
CC(=O)Nc1nc2c(c3c1c(=O)oc1ccccc13)CCCCC2 | inactive: > 76.9 µM
Cc1cccc(C)c1NC(=O)Cn1cnc2c(=O)n(C)c(=O)n(C)c21 | inactive: > 76.9 µM
COc1cccc(C2C(C(=O)c3cc4ccccc4o3)=C(O)C(=O)N2c2cc(C)on2)c1OC (stereo not drawn) | inactive: > 76.9 µM
Cc1cc(C)c2cc(C#N)c(N3CCCC3)nc2c1 | inactive: > 76.9 µM
C1CCC(OCCN2CCN(CCOC3CCCCC3)CC2)CC1 | inactive: > 76.9 µM
COc1ccccc1N1CCN(CC(=O)c2c(C)[nH]c3ccccc23)CC1 | inactive: > 76.9 µM
CCOC(=O)Nc1ccc2c(c1)N(C(=O)CCN1CCN3CCCC3C1)c1ccccc1CC2 (stereo not drawn) | inactive: > 76.9 µM
Cc1ccc(C)n1-n1cnc2sc(-c3ccccc3)cc2c1=O | inactive: > 76.9 µM
CCN(CC)CC(=O)Nc1ccc(C)cc1Br | inactive: > 76.9 µM
COc1cc(C(=O)NCCC(=O)NCCCN2CCCCC2)cc(OC)c1OC | inactive: > 76.9 µM
O=C(CN1CCN(c2ncccn2)CC1)N1CCN(C(c2ccccc2)c2ccccc2)CC1 | inactive: > 76.9 µM
CCOc1ccc(-c2ncncc2-c2ccc(OC)cc2)c(O)c1 | inactive: > 76.9 µM
O=C(NC1CCC(C(=O)O)CC1)OCc1ccccc1 (stereo not drawn) | inactive: > 76.9 µM
Cc1ccc(OCC(=O)Nc2ccc3c(c2)nc2n3CCOC2)cc1 | inactive
CCOc1ccc(-c2[nH]ncc2-c2ccc(OC)c(OC)c2)c(O)c1 | inactive: > 76.9 µM
CCOc1cc(N2CCOCC2)c(OCC)cc1NC1=NCCCCC1 | inactive: > 76.9 µM
CCOc1ccc(N2CCCn3c2nc2c3c(=O)n(CCc3ccccc3)c(=O)n2C)cc1 | inactive: > 76.9 µM
Cc1ccc(N=Cc2nc(-c3ccco3)oc2O)cc1 | inactive: > 76.9 µM

Compound | Potency
COc1ccc(-c2csc(N3CCN(Cc4ccc5c(c4)OCO5)CC3)n2)cc1 | inactive: > 76.9 µM
O=C(Nc1ccc(Br)cc1)C1CCCN1S(=O)(=O)c1cccs1 (stereo not drawn) | inactive: > 76.9 µM
Cc1[nH]c(=O)[nH]c(=O)c1CSc1nnc([C@H](CC(C)C)NC(=O)OC(C)(C)C)o1 | inactive: > 76.9 µM
CN1CCc2c(sc3c2C(=O)NC(/C=C/c2ccco2)N3)C1 (stereo not drawn) | inactive: > 76.9 µM
CCOC(=O)c1ccc(N(CC(=O)NC2CCCC2)C(=O)CNC(=O)c2ccco2)cc1 | inactive: > 76.9 µM
CCOc1ccc(C(=O)N2CCC(C(=O)c3ccc4c(c3)OCCO4)CC2)cc1 | inactive: > 76.9 µM
CC(C)(C)NC(=O)c1ccc(COc2ccccc2Br)o1 | inactive: > 76.9 µM
CS(=O)(=O)N1CCC(C(=O)N2CCc3ccccc3C2)CC1 | inactive: > 76.9 µM
Cn1cnnc1-c1cccc(NS(=O)(=O)c2ccc(N3CCCC3=O)cc2)c1 | inactive: > 76.9 µM
Cc1ccc(Cn2c(=O)n(Cc3ccco3)c(=O)c3ccccc32)cc1 | inactive: > 76.9 µM
Cc1nnc(SCCn2c(N3CCC(C)CC3)nc3c2c(=O)n(C)c(=O)n3C)s1 | inactive: > 76.9 µM
C=C(C)C1Cc2c(C)nn(-c3ccccc3)c2C1 (stereo not drawn) | inactive: > 76.9 µM
Cc1nnc(SCC(=O)N2c3ccccc3Sc3ccccc32)n1N | inactive: > 76.9 µM
CCCCn1c(SCC(=O)N2CC(C)CC(C)C2)nc2cc(S(N)(=O)=O)ccc21 (stereo not drawn) | inactive: > 76.9 µM
O=C(CCSc1nc(-c2ccco2)cc(C(F)(F)F)n1)N1CCCc2ccccc21 | inactive: > 76.9 µM
O=C(c1ccccc1-c1ccccc1)N1CCN(c2ccccn2)CC1 | inactive: > 76.9 µM
O=C(NCc1ccc(F)cc1)N[C@@H](Cc1ccccc1)C(=O)O | inactive: > 76.9 µM
CCOC(=O)c1cnc2c(C(=O)OC)cccc2c1NCCN1CCOCC1 | inactive: > 76.9 µM
O=C(NC1CCCCC1)n1c(=O)oc2ccc(Cl)cc21 | inactive: > 76.9 µM
COCCCN1C(=O)C(=O)/C(=C(/O)c2ccccc2)C1c1ccc2c(c1)OCO2 (stereo not drawn) | inactive: > 76.9 µM
Cc1cc(C)n(C(=O)c2ccc(C)c(S(=O)(=O)N3CCOCC3)c2)n1 | inactive: > 76.9 µM
CCCc1nnc(NC(=O)CCCC(=O)O)s1 | inactive: > 76.9 µM
